In all, about 310,000 compounds went through this assay and about 2,200 (0.71%) showed an effect of 50% or more. Effects have a minus sign here. The list shows a part of the results.

The values that follow come from publication PMC4336329 (PLoS ONE, 2015).

In the experiment the target is human ether-à-go-go-related gene (hERG) potassium channel (human, UniProt Q12809). Briefly: primary screen, population patch clamp on CHO cells stably expressing hERG.
Sequence of human ether-à-go-go-related gene (hERG) potassium channel (Q12809 whole entry, looked up): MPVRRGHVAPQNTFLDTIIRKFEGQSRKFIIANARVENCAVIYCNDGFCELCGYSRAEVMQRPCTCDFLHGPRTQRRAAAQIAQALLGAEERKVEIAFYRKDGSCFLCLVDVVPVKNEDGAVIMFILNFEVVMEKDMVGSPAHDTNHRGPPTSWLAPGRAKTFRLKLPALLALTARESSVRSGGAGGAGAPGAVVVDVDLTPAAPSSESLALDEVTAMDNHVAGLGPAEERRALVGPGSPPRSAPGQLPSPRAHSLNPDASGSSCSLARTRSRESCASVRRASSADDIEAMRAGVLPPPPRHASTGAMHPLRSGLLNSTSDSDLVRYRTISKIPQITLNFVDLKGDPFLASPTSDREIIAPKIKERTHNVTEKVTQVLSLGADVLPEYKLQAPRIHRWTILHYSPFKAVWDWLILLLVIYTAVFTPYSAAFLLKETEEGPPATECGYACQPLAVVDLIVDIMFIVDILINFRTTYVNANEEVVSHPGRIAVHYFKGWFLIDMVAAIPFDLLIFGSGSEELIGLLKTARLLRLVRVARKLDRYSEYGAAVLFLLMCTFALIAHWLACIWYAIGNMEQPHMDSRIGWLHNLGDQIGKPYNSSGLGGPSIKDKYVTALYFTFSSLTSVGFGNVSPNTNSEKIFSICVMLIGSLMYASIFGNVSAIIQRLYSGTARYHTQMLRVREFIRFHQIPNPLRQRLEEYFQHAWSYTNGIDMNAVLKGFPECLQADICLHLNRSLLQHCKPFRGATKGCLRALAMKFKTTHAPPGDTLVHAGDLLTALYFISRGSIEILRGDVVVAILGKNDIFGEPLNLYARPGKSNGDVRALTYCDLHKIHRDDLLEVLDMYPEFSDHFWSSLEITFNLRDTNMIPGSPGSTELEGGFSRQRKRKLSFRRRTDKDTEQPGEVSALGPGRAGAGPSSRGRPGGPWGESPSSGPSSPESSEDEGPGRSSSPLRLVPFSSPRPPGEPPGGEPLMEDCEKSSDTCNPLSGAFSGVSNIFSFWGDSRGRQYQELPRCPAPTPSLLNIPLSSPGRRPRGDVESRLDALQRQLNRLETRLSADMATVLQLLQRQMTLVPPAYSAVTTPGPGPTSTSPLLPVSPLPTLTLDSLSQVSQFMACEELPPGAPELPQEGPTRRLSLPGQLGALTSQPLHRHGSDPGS
In the case of `CCn1c(CCCCc2n[nH]c(=S)n2CC)n[nH]c1=S`, the “hERG current change (%, negative = inhibition) at 1uM” value is reported as 10.6%. To `O=C1Nc2ccccc2N(O)N1c1cc(-c2ccccc2)[nH]n1` belongs 7.55%. `N/C(COc1ncn(-c2ccccc2)n1)=N\S(=O)(=O)c1ccccc1`: the “hERG current change (%, negative = inhibition) at 1uM” value came to 6.11%. Regarding `COc1ccc(OC)c(C2=NO[C@@](CC(=O)O)(C(=O)Nc3ccc4c(c3)OCCO4)C2)c1`, the “hERG current change (%, negative = inhibition) at 1uM” value came out at 10.1%. For `Cc1ccc[n+](C(C)C(=O)Nc2ccc(C)c([N+](=O)[O-])c2)c1.[Br-]` (centres unmarked), the “hERG current change (%, negative = inhibition) at 1uM” value came out at 11.8%.

Regarding `COc1ccc(C(=O)NCc2cccs2)cc1S(=O)(=O)N1CCOCC1`, the “hERG current change (%, negative = inhibition) at 1uM” value worked out at 18.4%. For `Cc1cccc(Nc2nc3c(S(=O)(=O)c4ccccc4)nnn3c3ccccc23)c1C` the value was 5.16%. For `O=C(c1cccs1)N1CCN(S(=O)(=O)c2cccs2)CC1` the value was 7.82%. For the compound `Cc1ccc(CNC(=O)CC2Sc3ccccc3NC2=O)cc1` (centres unmarked), the “hERG current change (%, negative = inhibition) at 1uM” value stood at 20.1%. For `COc1ccc(NC(=O)c2sc3nc(N4CCCC4)c4c(c3c2N)CC(C)(C)OC4)cc1` the value was 12.7%; for `COc1ccc2cc(C(c3nnnn3CC3CCCO3)N3CCOCC3)c(=O)[nH]c2c1` (centres unmarked), 5.7%; for `COc1cc(NS(=O)(=O)c2ccc(N/C=C\C(=O)c3ccc(F)cc3)cc2)nc(OC)n1`, 3.47%.

Consider `CCCCNC(=O)/C(=C/c1ccccc1)NC(C)=O`, for which the “hERG current change (%, negative = inhibition) at 1uM” value was 1.06%. As for `COc1ccccc1N1CCN(C(=O)c2c(-c3c(Cl)cccc3Cl)noc2C)CC1`, the “hERG current change (%, negative = inhibition) at 1uM” value amounted to 9.91%. For `O=C(O)C(Cc1c[nH]c2ccccc12)NS(=O)(=O)c1ccc(Cl)cc1` (centres unmarked) the value was 8.72%; for `O=C(CCc1nnc2ccc(N3CCC4(CC3)OCCO4)nn12)Nc1cc(F)ccc1F`, 0.794%; for `O=C(O)c1ccccc1C(=O)N1CCN(C(=O)c2ccccc2Cl)CC1`, 8%. Regarding `CC(Oc1ccccc1)C(=O)N1CCC2(CC1)Oc1ccc(F)cc1C(=O)C21CC(c2cccnc2)=NO1` (centres unmarked), the “hERG current change (%, negative = inhibition) at 1uM” value was found to be 0.202%. With `C(=N\Nc1nncn1/N=C/c1ccco1)/c1ccco1`, the “hERG current change (%, negative = inhibition) at 1uM” value is 5.14%. To `O=C1CN(S(=O)(=O)c2ccc(Cl)cc2)c2ccccc2N1` belongs 7.61%; to `CC(=O)c1ccc(-n2nnnc2SCC(=O)N2CCN(C(=O)c3ccco3)CC2)cc1`, -19.7%; to `COc1ccc2c(c1)c1ncn(CC3CCCO3)c(=O)c1n2C` (centres unmarked), 9.57%. For `O=C(Cn1c(-c2cncs2)nc2ccccc21)NCCc1ccccc1` the value was 7.72%. To `CC(=O)Nc1cccc(Nc2nc(-c3ccccc3)nc3ccccc23)c1` belongs 3.93%. In the case of `CCCn1cc(C(CC(=O)O)C(=O)O)c2ccccc21` (centres unmarked), the “hERG current change (%, negative = inhibition) at 1uM” value is -0.584%. For `O=C(NCCCN1CCOCC1)c1ccc(NS(=O)(=O)c2cccc([N+](=O)[O-])c2)cc1` the value was -21.1%; for `CC1(C)OC(=O)N(CCC(=O)Nc2cccc(F)c2)C1(C)O` (centres unmarked), 4.7%.

In the case of `COCC1CCCN(C(=O)c2ccc(OC3CCN(Cc4ccccn4)CC3)cc2)C1` (centres unmarked), the “hERG current change (%, negative = inhibition) at 1uM” value is 10.3%.

As to `O=C(CNC(=O)OCc1ccccc1)NC1CCCCCCC1`, the “hERG current change (%, negative = inhibition) at 1uM” value is listed as 6.4%. To `CN1CCC(OC(=O)c2ccc(Br)cc2)CC1.Cl` belongs -14.7%; to `COc1cc(NC(=O)CSc2nc(=O)n(CCN3CCOCC3)c3c2CCCC3)cc(OC)c1`, -0.157%.

Regarding `COc1cc(NC(=O)C(C)N2CCN(C(=O)C3CC3)CC2)cc(OC)c1` (centres unmarked), the “hERG current change (%, negative = inhibition) at 1uM” value was found to be 0.782%. `Br.Cc1ccccc1Cn1c(=N)n(CC(=O)c2ccc([N+](=O)[O-])cc2)c2ccccc21`: the “hERG current change (%, negative = inhibition) at 1uM” value is on record as 0.624%. For `Cc1ccc(-c2noc(CCC(=O)NCC3CCN(Cc4cccc(C)c4)CC3)n2)cc1` the value was -17.1%; for `O=C(Nc1ccc(-n2ccc(C(F)(F)F)n2)cc1)c1cccs1`, 10.8%. To `Cc1cc(-c2nnc(SCC(=O)Nc3ccccn3)o2)no1` belongs 17%; to `CCOC(=O)C1=C(SCC)c2cc3c(n2C1=O)CCCC3`, 8.72%. To `COc1ccc(NC(=O)N(CCc2ccccc2)Cc2cc3c(C)cc(C)cc3[nH]c2=O)cc1` belongs 14.1%.

Consider `O=C(/C=C/c1ccccc1)NNc1ccc(Cl)cc1`, for which the “hERG current change (%, negative = inhibition) at 1uM” value was 6.93%. To `COc1cc(NC(=O)COC(=O)CC(C)(C)C)c(C)cc1[N+](=O)[O-]` belongs 2.73%; to `CCOc1ccccc1C1C(C#N)=C(N)SC(N)=C1C#N`, 14%; to `COc1ccc(N2C3=[N+](CCCC3)CC2(C)O)cc1.[Br-]` (centres unmarked), -5.27%. To `CC1CCCN(S(=O)(=O)c2ccc(NC(=O)C3CC(=O)N(C(C)(C)C)C3)cc2)C1` (centres unmarked) belongs 0.456%; to `CCC(SC1=NCCS1)C(=O)Nc1nnc(-c2ccccc2OC)s1` (centres unmarked), 7.9%; to `COc1ccc(NS(=O)(=O)c2ccc(OC)c(NC(=O)CNC(=O)c3ccc(OC)cc3)c2)cc1`, 2.4%. For `COc1cc(/C=N/NC(=O)c2ccc(NC(=O)C3CCCCC3)cc2)ccc1O` the value was 18.5%; for `Cc1sc(NC(=O)c2ccc(=O)n(C)n2)nc1-c1ccccc1`, 11%.

As to `Cc1c(CCOC(=O)c2cc([N+](=O)[O-])cc([N+](=O)[O-])c2)sc[n+]1CC(=O)c1ccccc1.[Cl-]`, the “hERG current change (%, negative = inhibition) at 1uM” value turned out to be 2.06%. `CCOC(=O)c1[nH]cnc1C(=O)Nc1cccc(Cl)c1`: the “hERG current change (%, negative = inhibition) at 1uM” value is recorded as 15.6%.

On to `COc1cc2ccccc2cc1C(=O)N(CCN(C)C)c1nc2c(F)cc(F)cc2s1.Cl`, for which the “hERG current change (%, negative = inhibition) at 1uM” value stood at 12.7%. As for `Cc1cc(SCc2ccc(Cl)cc2)nc(=O)[nH]1`, the “hERG current change (%, negative = inhibition) at 1uM” value worked out at 14.7%. `CCN(CC)S(=O)(=O)c1cc(NC(=O)CN2CCN(c3ccccn3)CC2)ccc1C`: the “hERG current change (%, negative = inhibition) at 1uM” value is recorded as -2.35%. For `CCCCn1c(N)c(N(CCOC)C(=O)c2cccc(-n3cnnn3)c2)c(=O)[nH]c1=O` the value was -0.783%; for `CC(=O)Nc1ccc2c(c1)nc(CCNC(=O)c1ccco1)n2C`, 14.9%. To `Cc1cccc(N2CC(C(=O)Nc3nnc(SCCN4CCOCC4)s3)CC2=O)c1` (centres unmarked) belongs 11.3%; to `COc1cc(OC)cc(C(=O)N2CCN(C(=O)c3ccc(-c4ccccc4)cc3)CC2)c1`, -9.78%; to `S=c1nc(COc2ccccc2)[nH]c2ccccc12`, 14%. To `COc1ccc(-c2cn(CCc3c[nH]c4ccccc34)nn2)cc1` belongs 7.02%; to `Cc1ncoc1C(=O)NC1CC(C)(C)Cc2c1cnn2-c1ccccc1` (centres unmarked), -3.92%; to `COc1ccc(/C(=N\O)c2nccc3cc(OC)c(OC)cc23)cc1OC`, 15.7%. On to `Cc1ccc(NC2c3ncccc3C(=O)N2Cc2ccc(F)cc2)cc1` (centres unmarked), for which the “hERG current change (%, negative = inhibition) at 1uM” value is -8.67%. For `Cc1ccc(NC(=O)CCS(=O)(=O)c2ccc3c(c2)NC(=O)C(C)S3)cc1Cl` (centres unmarked) the value was 15%; for `Nc1nnnn1/N=C/c1ccc(O)cc1`, 13.8%. Turning to `Cc1ccc2c(c1)c1c(n2CCc2ccc(C)nc2)CCN(C)C1`, the “hERG current change (%, negative = inhibition) at 1uM” value worked out at 8.94%. For `O=C(Nc1ccccc1N1CCCC1)c1ccc2ccccc2c1` the value was 13.3%; for `COC(=O)c1[nH]c(C)c(/C(O)=C2\C(=O)C(=O)N(CCN(C)C)C2c2ccccc2OC)c1C` (centres unmarked), 13.8%. Take `Cc1cccc(NC(=O)C2CCN(S(C)(=O)=O)CC2)c1C`: the “hERG current change (%, negative = inhibition) at 1uM” value is reported as 3.87%.

Take `Cn1c(=O)[nH]c(=O)c2c1nc(NCc1ccco1)n2Cc1ccccc1Cl`: the “hERG current change (%, negative = inhibition) at 1uM” value is recorded as 9.03%. Regarding `COCCc1nc2ccc(C(=O)N(C)Cc3cccc(-n4nc(C)cc4C)c3)cc2o1`, the “hERG current change (%, negative = inhibition) at 1uM” value is -4.79%.

As for `COc1cccc(CN2CCCC(C(=O)c3ccccc3SC)C2)c1O` (centres unmarked), the “hERG current change (%, negative = inhibition) at 1uM” value is on record as -76.9%.

As to `COc1cccc(N2CCN(C(=O)c3cc4cc(Cl)ccc4[nH]3)CC2)c1`, the “hERG current change (%, negative = inhibition) at 1uM” value is reported as 9.88%. For `CNc1nc(-c2ccccc2)nc(-c2ccc(OC)cc2)c1C#N` the value was 8.86%; for `O=c1[nH]c2c(s1)C(c1ccc(O)cc1)C1C3CCC(C3)C1S2` (centres unmarked), 8.69%; for `C(#Cc1ccccc1)Cn1nnc2ccccc21`, 4.3%. On to `Cc1cc(OC(C(=O)O)c2ccccc2)c2c(C)c(Cc3ccccc3)c(=O)oc2c1` (centres unmarked), for which the “hERG current change (%, negative = inhibition) at 1uM” value is on record as 8.89%. To `Cc1c(C(=O)NC2CC2)oc2ccc(S(=O)(=O)N3CCCCCC3)cc12` belongs 10.7%. For `COc1cc(C(C)=O)ccc1OC(=O)CN1C(=O)c2ccccc2C1=O` the value was 13.9%; for `COc1ccc(/C=N/NC(=O)C2(O)c3ccccc3-c3ccccc32)cc1`, 16.2%. `CC1CCCC(NC(=O)CCNC(=O)c2ccc([N+](=O)[O-])cc2)C1C` (centres unmarked): the “hERG current change (%, negative = inhibition) at 1uM” value is on record as -7.79%. `O=C(NCc1ccccc1)c1ccc(CS(=O)Cc2ccc(Cl)cc2)o1` (centres unmarked): the “hERG current change (%, negative = inhibition) at 1uM” value turned out to be 11.7%. For `C(#CCN1CCOCC1)COC/C=C/c1ccccc1.Cl` the value was -0.386%; for `O=C(O)CCC(NS(=O)(=O)c1ccc(-c2ccccc2)cc1)C(=O)O` (centres unmarked), 12.5%. To `O=C(NN1CCOCC1)c1cc(-c2cccc(Cl)c2)nc2ccccc12` belongs -3.86%; to `O=C(/C=C/c1ccccc1)NCCc1nc2ccccc2[nH]1`, 1.93%; to `CCCn1c(Nc2ccc(Cl)cc2)nc2ccccc21`, 7.42%. To `O=NN(CCc1ccncc1)c1ccc(OCc2ccccc2)cc1` belongs -11.4%.
